# Where a chain is given by its changes, count along the chain named. The list shows a part of the results.
# T1: RBFOX1 RRM (Homo sapiens, UniProt Q9NWB1 109-208)
# T1 sequence: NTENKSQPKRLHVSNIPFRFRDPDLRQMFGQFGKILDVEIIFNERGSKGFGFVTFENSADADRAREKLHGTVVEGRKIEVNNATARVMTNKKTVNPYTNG
# B1: GAGCGGG (DNA:RNA)
# RNA: GGGAGACCGGAAUUCAGAUUGUCCGAGCGGGUUAAAUCCCGUCGUAGCCACCA
# DNA 1: CAATCTGAATTCCGGTCTCCC
# DNA 2: TGGTGGCTACGACGGGATT
# B2: UUCUUAC (DNA:RNA)
# RNA: GGGAGACCGGAAUUCAGAUUGUCCUUCUUACUUAAAUCCCGUCGUAGCCACCA
# DNA 1: CAATCTGAATTCCGGTCTCCC
# DNA 2: TGGTGGCTACGACGGGATT
# B3: GCUACAG (DNA:RNA)
# RNA: B1 RNA with A26C, G27U, C28A, G29C, G30A
# DNA 1: CAATCTGAATTCCGGTCTCCC
# DNA 2: TGGTGGCTACGACGGGATT
# B4: CCACAUG (DNA:RNA)
# RNA: B1 RNA with G25C, A26C, G27A, G29A, G30U
# DNA 1: CAATCTGAATTCCGGTCTCCC
# DNA 2: TGGTGGCTACGACGGGATT
# B5: UCGGUCG (DNA:RNA)
# RNA: B1 RNA with G25U, A26C, C28G, G29U, G30C
# DNA 1: CAATCTGAATTCCGGTCTCCC
# DNA 2: TGGTGGCTACGACGGGATT
# B6: UCACCCC (DNA:RNA)
# RNA: B2 RNA with U26C, C27A, U28C, U29C, A30C
# DNA 1: CAATCTGAATTCCGGTCTCCC
# DNA 2: TGGTGGCTACGACGGGATT
# B7: AUUAUUA (DNA:RNA)
# RNA: B2 RNA with U25A, C27U, U28A, A30U, C31A
# DNA 1: CAATCTGAATTCCGGTCTCCC
# DNA 2: TGGTGGCTACGACGGGATT
# B8: ACAGGAA (DNA:RNA)
# RNA: B1 RNA with G25A, A26C, G27A, C28G, G30A, G31A
# DNA 1: CAATCTGAATTCCGGTCTCCC
# DNA 2: TGGTGGCTACGACGGGATT
# B9: GGGUACG (DNA:RNA)
# RNA: B1 RNA with A26G, C28U, G29A, G30C
# DNA 1: CAATCTGAATTCCGGTCTCCC
# DNA 2: TGGTGGCTACGACGGGATT
# Molecular target: T1, RBFOX1 RRM
# Assay: EMSA; HiTS-Eq, 1 nM pool, 10 min; buffer printed only for the single-RNA assays: 10 mM Tris pH 7.5, 150 mM NaCl, 3.4 mM EDTA, 0.001% NP-40, 30 C
# Conditions: tags: His6 N-terminal (pET28a); label: 5' 32P
# Outline: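 Purified RbFox RRM, wild type or mutant, was incubated for 10 min in 50 µL with 1 nM of a 5′-radiolabelled RNA pool carrying 7 randomized nucleotides, whose flanks were annealed to DNA oligonucleotides, over a series of increasing protein concentrations. Unbound RNA was resolved on 8% native PAGE, cut out, reverse-transcribed, barcoded by PCR and sequenced on an Illumina HiSeq 2500. Relative association constants were derived from changes in read counts for each RNA species versus the control reaction and normalised to the cognate motif.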
row,Binder,binding signal
1,B1,0.0168 KA relative to UGCAUGU
2,B2,0.00693 KA relative to UGCAUGU
3,B3,0.0136 KA relative to UGCAUGU
4,B4,0.00835 KA relative to UGCAUGU
5,B5,0.0208 KA relative to UGCAUGU
6,B6,0.00128 KA relative to UGCAUGU
7,B7,0.00154 KA relative to UGCAUGU
8,B8,0.00607 KA relative to UGCAUGU
9,B9,0.0136 KA relative to UGCAUGU
